Measured values reported in patent US20150246024A1 (priority 2012, published 2015).

Test system: S. aureus Newman
Details: 32 mg/kg intraperitoneal in 12-hour intervals, from 24 hours prior to 72 hours post infection; 1×10^8 CFU
Method: Inhibitor solution was prepared freshly prior to every injection. Briefly, a frozen stock of compound 1771 (1) was pre-warmed at 37° C. for 5 minutes and suspended into Compound buffer (20 mM HEPES-KOH, pH 7.5, 100 mM NaCl). The clinical isolate Newman was used for infection since it has been extensively characterized in our laboratory to study the therapeutic effects of small molecule inhibitors (McAdow 2011). […] An overnight culture of strain Newman was diluted 1:100 into fresh TSB and grown until an OD600 of 0.4. Bacteria were centrifuged at 7,000×g, washed, and suspended in one-tenth volume of PBS. Six week-old female BALB/c mice (n=15) (Charles River) were injected retro-orbitally with 1×10^8 colony forming unit (CFU) suspension in 100 μl of PBS. Mice were monitored for survival over 10 days. […]
The therapeutic impact of compound 1771 during infection was examined. First, we evaluated the half-life of compound 1771 in vivo. […]
Animal experiments were performed in accordance with the institutional guidelines following experimental protocol review and approval by the Institutional Biosafety Committee (IBC) and the Institutional Animal Care and Use Committee (IACUC) at the University of Chicago. S. aureus Newman (1×10^8 CFU suspended in 100 μl PBS) was injected into the periorbital venous plexus of BALB/c mice (n=15) and animals were monitored for survival over 10 days. […]

In the case of `O=C(COC(=O)Cc1coc2ccc3ccccc3c12)Nc1nnc(-c2ccccc2)o1` [Compound 1771, 2-oxo-2-[(5-phenyl-1,3,4-oxadiazol-2-yl)amino]ethylnaphtho[2,1-b]furan-1-ylacetate], the “survival of treated animals after challenge” value is reported as “up to 132 hours”.
